# Out of some 320,000 compounds screened, about 200 (0.062%) were called active. Inconclusive means that the source gave no clear call. Such entries were picked first, then a sample of the others. Calls follow the shape of the dose curve; as a rule, active = well fitted activation curve with a large enough effect; inconclusive = small, poorly fitted or top-dose-only effect; inactive = no such curve, though single readings can be large or run the other way. No potency is given beside an inconclusive call; the fits are too rough.
# Experiment: qHTS assay for re-activators of p53 using a Luc reporter; also: nearly all actives have a fitted effect of over 45% in size
# Conditions: H1299 p53-A138V BP100-luciferase reporter, luminescence, 24 h; series mostly up to 92.2 µM
# How it was run: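 H1299 (p53-null), stable ts p53-A138V + BP100-Luc; 1000 cells/well, Opti-MEM/10% FBS; cpd 4 pt, 1:5; 24 h, 37 deg C, 5% CO2; detection reagent 10 min RT; luminescence.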
# Potency is read from the fitted curve at half-maximal effect; tags tell the direction and shape of the fitted curve.
row,Structure (SMILES),Potency
1,Cc1cc(C(=O)COC(=O)c2ccc[nH]c2=O)c(C)n1-c1ccc(F)cc1,"inconclusive [activator, full curve, poor fit]"
2,Cc1c(C(=O)Oc2cccc3ccccc23)cnn1-c1ccccc1,"inconclusive [activator, partial curve, poor fit]"
3,O=C1N[C@@H](c2ccccc2)COC(=O)[C@H](Cc2ccc(F)cc2)CC/C=C/C[C@H]1CC(=O)N(CCO)Cc1ccccc1,inactive
4,CC(C)CN(C(=O)c1cc(=O)[nH]c2ccccc12)c1c(N)n(Cc2ccccc2)c(=O)[nH]c1=O,inactive
5,CCOc1cc(N2CCOCC2)c(OCC)cc1NC(=O)COC(=O)CCOc1ccc(C)cc1,"inconclusive [activator, single point]"
6,Cn1cnc([N+](=O)[O-])c1Sc1ncn[nH]1,"inconclusive [activator, partial curve, poor fit]"
7,Cc1cc(C(=O)N/N=C/c2cc(Br)cc([N+](=O)[O-])c2O)c2ccccc2n1,inactive
8,Cc1nc(NC(=O)Nc2ccc(Cl)cc2)sc1C,inactive
9,COc1cc(C=O)ccc1OCc1cccc(Br)c1,"inconclusive [activator, full curve, poor fit]"
10,CC(C)Cc1nnc(NC(=O)c2ccncc2)s1,"inconclusive [activator, partial curve, poor fit]"
11,CN(C)CCCN1C(=O)C(=O)/C(=C(/O)c2ccc3c(c2)OCCO3)C1c1ccco1 (centres undefined),"inconclusive [activator, partial curve]"
12,Cc1cc(SCC(=O)c2ccccc2)n2nc(C)nc2n1,"inconclusive [activator, partial curve, poor fit]"
13,COc1ccc(C2N=C(c3ccccc3)NO2)cc1OC (centres undefined),"inconclusive [activator, partial curve, poor fit]"
14,COc1ccc(N(CCC(=O)NCCc2ccccc2)S(=O)(=O)c2ccc(C)cc2C)cc1,"inconclusive [activator, partial curve, poor fit]"
15,N/C(=N\OC(=O)c1ccccc1[N+](=O)[O-])c1ccccn1,"inconclusive [activator, partial curve, poor fit]"
16,O=C(N/N=C/c1cccc(O)c1)N/N=C/c1cccc(O)c1,"inconclusive [activator, partial curve, poor fit]"
17,COC(=O)c1ccc(CC(=O)c2nc3ccccc3s2)cc1,"inconclusive [activator, partial curve, poor fit]"
18,Cc1ccn(CC(=O)N/N=C/c2cc([N+](=O)[O-])ccc2O)n1,"inconclusive [activator, single point]"
19,COc1ccc(CCN(C)C(=O)C2CCN(C(=O)Nc3ccccc3)CC2)cc1OC,inactive
20,COc1ccc(/C=C/C(=O)C2(O)CCCCC2)cc1,active: 39.8 µM
21,O=C(OCC(=O)N1CCCCCC1)c1cccnc1Cl,"inconclusive [activator, full curve]"
22,COc1cc(NC2CCCCC2O)c2nc(-c3ccc(Cl)cc3)ccc2c1 (centres undefined),"inconclusive [activator, partial curve, poor fit]"
23,CC(=O)[C@H]1CC[C@H]2[C@@H]3C[C@H](C)C4=CC(=O)CC[C@]4(C)[C@H]3[C@@H](O)C[C@]12C,inactive

row,Structure (SMILES),Potency
1,CCN(C(=O)COC(=O)c1cc(-c2ccc3cc(OC)ccc3c2)nc2ccccc12)C1CCS(=O)(=O)C1 (centres undefined),"inconclusive [activator, full curve, poor fit]"
2,COC(=O)c1ccc2[nH]c(C)c(CN3CCCC3)c(=O)c2c1,inactive
3,Cc1nn(C)cc1/C=N/NC(=S)Nc1ccccc1,"inconclusive [activator, partial curve, poor fit]"
4,CC1CCN(C2=C(NS(=O)(=O)c3ccc(Br)cc3)C(=O)c3ccccc3C2=O)CC1,"inconclusive [activator, partial curve, poor fit]"
5,Cc1nn(-c2ccccn2)c2c1-c1nc(N)ncc1CC2,"inconclusive [activator, partial curve, poor fit]"
6,COc1ccc(N2C(S)=C(C#N)C(=O)NC2c2ccco2)cc1 (centres undefined),"inconclusive [activator, single point]"
7,O=C(Nc1nnc(C2CC2)s1)C1Cc2ccccc2CN1S(=O)(=O)c1ccccc1F (centres undefined),inactive
8,O=C(NNC(=O)c1cccnc1Cl)c1ccc(F)cc1,"inconclusive [activator, single point]"
9,COc1ccccc1CNC(=O)c1ccc(CS(=O)(=O)c2ccccc2C)o1,"inconclusive [activator, single point]"
10,O=C1OC(c2ccc(Br)cc2)=N/C1=C\N1CCCCC1,"inconclusive [activator, partial curve, poor fit]"
11,COc1ccc(C(=O)NCC(=O)OCCCOC(=O)CNC(=O)c2ccc(OC)c(OC)c2)cc1OC,inactive
12,CCc1cc(=O)oc2cc(OCc3ccc(C(=O)O)o3)ccc12,"inconclusive [activator, single point]"
13,Oc1c(Br)cccc1/C=N/Nc1c(F)c(F)c(F)c(F)c1F,"inconclusive [activator, full curve, poor fit]"
14,Cc1ccn2c(NC3CCCC3)c(-c3ccncc3)nc2c1,inactive
15,N=C1/C(=C/c2cccn2Cc2ccc(F)cc2)C(=O)N=C2SC=CN12,inactive
16,COc1ccccc1NC(=S)NC1CC2CCC1C2 (centres undefined),inactive
17,Cc1ccc(NC(=O)Nc2ccccc2C(=O)NCc2ccccc2)cc1,inactive
18,Cc1cc(C(=O)Nc2cc(Br)ccc2O)on1,inactive
19,Cc1ccc(Nc2nc3nonc3[nH]c2=O)cc1,"inconclusive [activator, partial curve, poor fit]"
20,Cc1cc(C)nc(NC(=O)c2ccc([N+](=O)[O-])c(C)c2)n1,"inconclusive [activator, partial curve, poor fit]"
21,C/C(=N\NC(=S)NCc1ccccc1)c1ccc(Br)cc1,inactive
22,CC(/C=C/c1ccc2c(c1)OCO2)=N/NC(=O)c1cccnc1,"inconclusive [activator, single point]"
23,COc1ccccc1-c1nnc(NC(C)=O)s1,"inconclusive [activator, full curve, poor fit]"

row,Structure (SMILES),Potency
1,Clc1ccccc1OCc1nnc(-c2ccccc2Br)o1,"inconclusive [activator, partial curve, poor fit]"
2,CNC(=O)CC1C(=O)N(c2ccc(F)cc2)C(=S)N1NC(=O)c1ccc(Br)cc1 (centres undefined),"inconclusive [activator, single point]"
3,COc1ccc(-c2nnc(SC(C)C(=O)Nc3ccc4c(c3)OCCO4)o2)cc1 (centres undefined),"inconclusive [activator, partial curve, poor fit]"
4,C=CCn1c(CC(=O)OC)csc1=Nc1ccc(C(C)=O)cc1,"inconclusive [activator, single point]"
5,c1cn2cc(-c3ccc4c(c3)OCO4)nc2s1,"inconclusive [activator, partial curve, poor fit]"
6,CC1CC1C(=O)OCc1cc(=O)n2cc(Br)ccc2n1 (centres undefined),"inconclusive [activator, partial curve, poor fit]"
7,O=C(NCCOc1ccccc1)c1ccc2n[nH]nc2c1,"inconclusive [activator, partial curve, poor fit]"
8,Cc1ccnc(NC(=S)NC(=O)/C=C/c2ccc(Cl)cc2)c1,"inconclusive [activator, single point]"
9,COCCOC(=O)C1=C(C)NC(=S)NC1c1cccs1 (centres undefined),inactive
10,COC(=O)c1sc(NC(=O)CSc2nnnn2C)nc1C,"inconclusive [activator, full curve, poor fit]"
11,Cc1ccc(S(=O)(=O)Nc2ccccc2CNc2cccc(C)n2)cc1,"inconclusive [activator, partial curve, poor fit]"
12,Nc1ccc2nn(-c3cc([N+](=O)[O-])ccc3O)nc2c1,inactive
13,Cc1cc(C(=O)Nc2cccc(NC(=O)c3ccco3)c2)ccc1[N+](=O)[O-],inactive
14,Cc1nn(-c2nc3ccccc3s2)c(N)c1Sc1ccc(F)cc1,"inconclusive [activator, single point]"
15,Cc1ccc2nc(SCC(=O)Nc3ccc(Cl)cc3)nc(=O)n2c1,inactive
16,O=C(c1cn(-c2ccccc2)nc1-c1cccs1)N1CCN(c2ccc(F)cc2)CC1,"inconclusive [activator, partial curve, poor fit]"
17,COc1ccc(NC(=O)CSc2nnnn2C)cc1,inactive
18,CCc1ccc(C(c2ccc(CC)cc2)C(Cl)Cl)cc1,inactive
19,Fc1ccc(CSc2ccc3nnc(-c4cccnc4)n3n2)cc1,inactive
20,CCOC(=O)C1CCN(C(=O)c2c(C)oc3c2C(=O)c2ccccc2C3=O)CC1,inactive
21,CSc1nc(O)c(N=Nc2ccc(F)cc2F)c(=O)[nH]1,"inconclusive [activator, partial curve, poor fit]"
22,O=C(Nc1nnc(Cc2c[nH]c3ccccc23)s1)c1ccc(Cl)cc1Cl,"inconclusive [activator, partial curve, poor fit]"
23,CC(NS(=O)(=O)c1ccc(Cl)c(Cl)c1)C(=O)OCC(=O)N1CCCCCC1 (centres undefined),"inconclusive [activator, single point]"

# — PubChem BioAssay AID504706 (National Center for Advancing Translational Sciences (NCATS), 2011)
